Results as given in PubChem BioAssay AID624296 (National Center for Advancing Translational Sciences (NCATS), 2012).
Among all 350,000 compounds or so, about 9,900 (2.8%) were called active. This list was built around the results that the source calls inconclusive (neither active nor inactive); the mix of calls is not that of the screen. Calls come from the whole dose curve; as a rule, active = well fitted activation curve with a large enough effect; inconclusive = small, poorly fitted or top-dose-only effect; inactive = no such curve, though single readings can be large or run the other way. Potencies of inconclusive entries are left out as doubtful fits.

Assay: A quantitative high throughput screen for small molecules that induce DNA re-replication in MCF 10a normal breast cells. For activity, positive = re-replication: % of control where 0% means no effect. Note: nearly all actives have a fitted effect of over 50% in size.
Conditions: MCF 10A DNA re-replication, Hoechst nuclear intensity, 48 h; activity, positive = re-replication: at 46.1 µM (top of the series)
Potency is the fitted concentration of half-maximal effect; tags give direction and shape of the fitted curve.

SMILES	Potency	activity, positive = re-replication
COC(=O)c1cnn(-c2cc(Oc3cccc(C)c3)ncn2)c1N	inconclusive [activator, partial curve, poor fit]	–
CCOC(=O)C[C@H]1c2ccccc2S(=O)(=O)N1c1cccc(OC)c1	inconclusive [activator, full curve]	–
Oc1cccc(CCc2ccccn2)c1	–	inactive: -3.55%
O=C(Nc1ccc(NC(=O)c2cc([N+](=O)[O-])ccc2N2CCOCC2)cc1)c1cccs1	inconclusive [activator, partial curve, poor fit]	–
Cc1ccc(S(=O)(=O)N2CCCC(C(=O)NCc3ccc4c(c3)OCO4)C2)cc1 (stereo not given)	inconclusive [activator, partial curve, poor fit]	–
COC(=O)C1=C(C)N(Cc2ccccc2)C(=NCc2cccc(Cl)c2)N[C@H]1c1cccc(F)c1	inconclusive [activator, single point]	–
O=c1oc2ccccc2cc1-c1nc2ccccc2o1	–	inactive: 3.15%
CC(C(=O)C12CC3CC(CC(C3)C1)C2)N1CCOCC1 (stereo not given)	inconclusive [activator, partial curve, poor fit]	–
O=C(Cc1ccccc1)N/N=C/c1ccccc1Cl	–	inactive: 0.0016%
Fc1ccc(NC(=S)NCCc2ccc(Cl)cc2)cc1	inconclusive [activator, single point]	–
Cc1ccc(-c2nc(CC(=O)Nc3cccc(S(=O)(=O)NC4=NCCC4)c3)cs2)cc1	inconclusive [activator, single point]	–
CC(C)CNc1nc(N)c([N+](=O)[O-])c(N2CCCCCC2)n1	inconclusive [activator, single point]	–
CCS(=O)(=O)C1=NSC2=NC(=O)/C(=C\c3cc(C)n(-c4cccc(OC)c4)c3C)C(=N)N21	active: 5.8 µM	–
CC[C@]12c3[nH]c4ccc(OC)cc4c3CCN1C(=O)C(CC(=O)NCc1ccco1)C[C@@H]2C(=O)N1CCN(C(=O)C2CC2)CC1 (stereo not given in full)	–	inactive: 12.3%
O=C(NC1CCCC1)C(c1ccc(F)cc1)N(C(=O)c1csnn1)C1CC1 (stereo not given)	–	inactive: -6.89%
CCN1CCN(CCc2nc3cc([N+](=O)[O-])ccc3n2C)CC1	–	inactive: -4.22%
COc1ccccc1CC(=O)N(Cc1ccccc1)c1cccc(C)c1	–	inactive: 23.5%
COc1ccc(Cl)cc1NC(=O)CN1CCN(S(=O)(=O)N2CCC(C)CC2)CC1	inconclusive [activator, single point]	–
COc1ccccc1-c1nnc(NC(=O)c2ccc(S(=O)(=O)N3CCOCC3)cc2)o1	inconclusive [activator, single point]	–
O=C(NCCc1c[nH]c2ccccc12)/C(=C/c1cccnc1)NC(=O)c1ccco1	inconclusive [activator, single point]	–
O=C(COc1ccccc1)Nc1ccc2c(c1)nc1n2CCSC1	–	inactive: -2.77%
O=C(COC(=O)CCc1ccccc1)NC(c1ccccc1)c1ccccc1	–	inactive: 0.0082%
N#Cc1c(NC(=O)C2CCCO2)sc2c1CCCCCC2 (stereo not given)	inconclusive [activator, full curve, poor fit]	–
COc1ccccc1CN1CCNC(=O)C1CC(=O)NC1CCCCCC1 (stereo not given)	–	inactive: 1.84%

SMILES	Potency	activity, positive = re-replication
COC(=O)c1cnn2c(C(F)(F)F)cc(-c3ccccc3)nc12	–	inactive: -4.98%
COc1cc(/C=C2/SC(=S)N(CC(=O)NC(C)(C)C)C2=O)cc(OC)c1OC	inconclusive [activator, partial curve, poor fit]	–
CCSc1nc2cc(S(=O)(=O)N3CCOCC3)ccc2o1	inconclusive [activator, single point]	–
COc1ccc(C2NC(=O)C(C#N)=C(S)N2c2ccccc2)cc1OC (stereo not given)	inconclusive [activator, single point]	–
COc1ccc2c(c1)C(=NNC(=O)c1ccccn1)c1cc(OC)ccc1-2	inconclusive [activator, partial curve]	–
COc1cc(C2C(C(=O)c3cc4ccccc4o3)=C(O)C(=O)N2c2cc(C)on2)cc(OC)c1OC (stereo not given)	inconclusive [activator, partial curve, poor fit]	–
Cc1ccccc1NC(=S)N(CCCN1CCC(C)CC1)Cc1ccco1	–	inactive: -2.13%
COc1cc(/C=c2\s/c(=C\C(=O)C(C)(C)C)[nH]c2=O)cc(OC)c1OC	active: 18.4 µM	–
CCOc1ccc(-n2c(-c3ccc(Br)cc3)c[n+]3c2CCCCC3)cc1	inconclusive [activator, single point]	–
c1ccc2[nH]c(CSc3nc4ccccc4o3)nc2c1	–	inactive: 2.16%
O=C(c1ccc(Cl)c(S(=O)(=O)N2CCCCCC2)c1)N1CCN(c2ccccn2)CC1	–	inactive: 3.08%
COc1ccc(NC(=O)CSc2nc(=O)n(CCN(C)C)c3c2CCCC3)cc1OC	inconclusive [activator, single point]	–
Cc1ccc(/C=N/NC(=O)CSCc2ccc(Cl)cc2)cc1	inconclusive [activator, single point]	–
COc1cccc(CN2CCC(C(=O)N3CCN(Cc4ccc5c(c4)OCO5)CC3)CC2)c1OC	inconclusive [activator, single point]	–
N=C1/C(=C/c2cccs2)C(=O)N=C2SN=C(SCc3ccccc3)N12	inconclusive [activator, partial curve, poor fit]	–
Cc1c(CCOC(=O)C2C3CC4CC(C3)CC2C4)sc[n+]1CC(=O)c1ccc(Br)cc1 (stereo not given)	inconclusive [activator, single point]	–
Cc1ccnc(NC(=O)CSc2cc(=O)n(C)c3ccccc23)c1	inconclusive [activator, single point]	–
CCCOc1ccc(CSc2ncn[nH]2)cc1	inconclusive [activator, single point]	–
Cc1ccc(Cl)cc1NC(=O)c1ccc(Cn2cc(Cl)cn2)cc1	inconclusive [activator, single point]	–
O=C(COc1ccccc1Cl)Nc1ccc(CN2CCCCC2)cc1	inconclusive [activator, partial curve, poor fit]	–
O=C(CNC(=O)c1cccs1)c1ccc(F)cc1	active: 23.1 µM	–
COc1ccc(NC(=O)Cn2cc(S(=O)(=O)Cc3ccccc3)c3ccccc32)c(OC)c1	–	inactive: 0.434%
COc1ccc(/C=N/NC(=O)C(=O)NCC2CCCO2)cc1 (stereo not given)	–	inactive: -0.611%
O=C(c1cc2cc(Cl)ccc2[nH]1)N1CCN(Cc2ccc3c(c2)OCO3)CC1	inconclusive [activator, partial curve, poor fit]	–

SMILES	Potency	activity, positive = re-replication
CC(C(=O)Nc1ccc([N+](=O)[O-])cc1Cl)N1CCN(S(=O)(=O)c2cccs2)CC1 (stereo not given)	inconclusive [activator, single point]	–
O=C(c1cc(C2CC2)nn1-c1ccccc1)N1CCN(Cc2ccc(Cl)cc2)CC1	inconclusive [activator, single point]	–
COc1cccc(C(=O)/C=C/Nc2ccc(S(=O)(=O)Nc3cccc(C(C)=O)c3)cc2)c1	active: 10.3 µM	–
S=c1[nH]nc(COc2ccccc2)n1/N=C/c1c(Cl)cccc1Cl	inconclusive [activator, single point]	–
CCC(=O)Oc1ccc2c(C)c(Cl)c(=O)oc2c1	–	inactive: 0.669%
CCOc1ccc(NS(=O)(=O)c2ccc(NS(=O)(=O)c3ccc(SC)cc3)cc2)cc1	inconclusive [activator, single point]	–
Cc1nn2c(N3CCN(c4ccccn4)CC3)cc(C(C)C)nc2c1-c1ccccc1	inconclusive [activator, partial curve]	–
O=C(Nc1ccc2nc(-c3ccccc3)[nH]c2c1)c1ccco1	–	inactive: 5.21%
CNC(=O)NC(=O)C(OC(=O)Cc1cccc(C(F)(F)F)c1)c1ccccc1 (stereo not given)	–	inactive: -18.8%
Brc1cccc(-c2nc3cccnc3nc2-c2cccc(Br)c2)c1	inconclusive [activator, full curve, poor fit]	–
CCOC(=O)CSC1=C(C#N)C(c2ccccc2OC)CC(=O)N1 (stereo not given)	active: 5.17 µM	–
CC(C)N1CCc2c(sc(NC(=O)c3cc(-c4cccs4)nc4ccccc34)c2C(N)=O)C1	active: 18.4 µM	–
CCOc1ccc(-c2[nH]ncc2Oc2cccc(OC)c2)c(O)c1	inconclusive [activator, single point]	–
COC(=O)c1cccnc1-n1c(=O)c2cccnc2n(Cc2ccc([N+](=O)[O-])cc2)c1=O	inconclusive [activator, full curve, poor fit]	–
COc1ccc(-c2ccc(CCC(=O)O)n2-c2ccccc2OC)cc1	active: 14.6 µM	–
O=C(Oc1c(CN2CCOCC2)cc(Cl)c2cccnc12)c1ccccc1F	active: 18.4 µM	–
O=S(=O)(Cc1ccc(Cl)cc1)Nc1ccc2c(c1)OCO2	–	inactive: 2.28%
COc1ccc(Cl)cc1NC(=O)Cn1cccc1	inconclusive [activator, single point]	–
C(=C\c1nc(N2CCCCCC2)c2ccccc2n1)/c1ccccc1	active: 20.6 µM	–
Cc1cc(C)c2sc(NNC(=O)c3ccc(S(=O)(=O)N4CCc5ccccc5C4)cc3)nc2c1	inconclusive [activator, partial curve, poor fit]	–
Cc1ccc(C(=O)N2CCN(c3cccc(C)c3C)CC2)o1	inconclusive [activator, partial curve, poor fit]	–
COc1ccc(-c2nc3ncccn3c2Nc2ccc3c(c2)OCCO3)cc1	inconclusive [activator, partial curve, poor fit]	–
